Test results from paper PMC9911399, “Two distinct binding modes provide the RNA-binding protein RbFox with extraordinary sequence specificity”.
Where a chain is given by its changes, count along the chain named. The list shows a part of the results.

T1: RBFOX1 RRM RbFoxmut (Fox-RRM*) (Homo sapiens, UniProt Q9NWB1 109-208, R118D;E147R;N151S;E152T)
T1 sequence: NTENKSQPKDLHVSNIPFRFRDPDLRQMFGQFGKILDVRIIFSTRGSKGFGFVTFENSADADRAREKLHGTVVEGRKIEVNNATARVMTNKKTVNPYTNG

B1: CUUGUUU (DNA:RNA)
RNA: GGGAGACCGGAAUUCAGAUUGUCCCUUGUUUUUAAAUCCCGUCGUAGCCACCA
DNA 1: CAATCTGAATTCCGGTCTCCC
DNA 2: TGGTGGCTACGACGGGATT
B2: GGCCUAA (DNA:RNA)
RNA: B1 RNA with C25G, U26G, U27C, G28C, U30A, U31A
DNA 1: CAATCTGAATTCCGGTCTCCC
DNA 2: TGGTGGCTACGACGGGATT
B3: ACUUGGG (DNA:RNA)
RNA: B1 RNA with C25A, U26C, G28U, U29G, U30G, U31G
DNA 1: CAATCTGAATTCCGGTCTCCC
DNA 2: TGGTGGCTACGACGGGATT
B4: UUGAUAC (DNA:RNA)
RNA: B1 RNA with C25U, U27G, G28A, U30A, U31C
DNA 1: CAATCTGAATTCCGGTCTCCC
DNA 2: TGGTGGCTACGACGGGATT
B5: UGUAAAU (DNA:RNA)
RNA: B1 RNA with C25U, U26G, G28A, U29A, U30A
DNA 1: CAATCTGAATTCCGGTCTCCC
DNA 2: TGGTGGCTACGACGGGATT
B6: UGAUGCA (DNA:RNA)
RNA: GGGAGACCGGAAUUCAGAUUGUCCUGAUGCAUUAAAUCCCGUCGUAGCCACCA
DNA 1: CAATCTGAATTCCGGTCTCCC
DNA 2: TGGTGGCTACGACGGGATT
B7: AGUCUUC (DNA:RNA)
RNA: B1 RNA with C25A, U26G, G28C, U31C
DNA 1: CAATCTGAATTCCGGTCTCCC
DNA 2: TGGTGGCTACGACGGGATT
B8: UCAGCCA (DNA:RNA)
RNA: B6 RNA with G26C, U28G, G29C
DNA 1: CAATCTGAATTCCGGTCTCCC
DNA 2: TGGTGGCTACGACGGGATT
B9: ACUACAA (DNA:RNA)
RNA: B1 RNA with C25A, U26C, G28A, U29C, U30A, U31A
DNA 1: CAATCTGAATTCCGGTCTCCC
DNA 2: TGGTGGCTACGACGGGATT

biological target: T1, RBFOX1 RRM RbFoxmut (Fox-RRM*); assay: EMSA; HiTS-Eq, 1 nM pool, 10 min; buffer printed only for the single-RNA assays: 10 mM Tris pH 7.5, 150 mM NaCl, 3.4 mM EDTA, 0.001% NP-40, 30 C; details: tags: His6 N-terminal (pET28a); label: 5' 32P
How it was run: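 Purified wild-type or mutant RbFox RRM at increasing concentrations was equilibrated with 1 nM of 5′-radiolabelled RNA carrying 7 randomized nucleotides for 10 min in 50 µL. Unbound RNA was separated by 8% native PAGE and sequenced. Relative association constants came from read-count changes of each RNA species compared with the control reaction, normalised to the cognate motif.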

First: B1
Second: B2
The binding signal of the first is higher: 0.0932 KA relative to UGCAUGU for the first, 0.0594 KA relative to UGCAUGU for the second.

First: B3
Second: B4
The binding signal of the first is lower: 0.0735 KA relative to UGCAUGU for the first, 0.119 KA relative to UGCAUGU for the second.

Compared with B5, B6 is higher in binding signal: 0.0668 KA relative to UGCAUGU for the first, 0.216 KA relative to UGCAUGU for the second.

Compared with B7, B8 is lower in binding signal: 0.125 KA relative to UGCAUGU for the first, 0.106 KA relative to UGCAUGU for the second.

For B9, the binding signal was 0.0702 KA relative to UGCAUGU.
